Where “and” joins values, the source holds several entries; their conditions need not be identical. Equal values may be shown once.
Tested on: histone modifications in MCF-7 cells
Experiment: Histone modification analysis by bottom-up LC-MS/MS
Assay type: cell-based
Conditions: for Ratio, H33_27_40 K27me1K36me1 / Ratio, H33_27_40 K27me1K36me2 / Ratio, H33_27_40 K27me1K36me3 / Ratio, H33_27_40 K27me2K36me1 / Ratio, H33_27_40 K27me3K36me1 / Ratio, H33_27_40 K36me1 / Ratio, H33_27_40 K36me2 / Ratio, H33_27_40 unmod: KSAPSTGGVKKPHR(H33_27_40)
Excerpt: In this approach. […] Histones are then extracted from cell pellets and chemically derivatized with propionic anhydride, digested with trypsin, subjected to a second round of propionylation, and analyzed by LC-MS/MS. Measuring the relative intensity of modified versus unmodified forms of individual histone peptides enables simultaneous monitoring of multiple potential biomarkers of MYST inhibition. To minimize false positives, we focused on abundant and reproducible modifications (average stoichiometry of greater than 1% across triplicate samples, standard deviation less than or equal to the average measurement). To account for potential histone modification crosstalk, changes in both acetylated and methylated peptides were evaluated. 38 modified peptides passed this reproducible detection threshold including several established KAT biomarkers[41] including H3K9Ac (KAT2A/B), H3K18Ac (KAT3A/B), H3K14Ac (KAT7), H3K23Ac (KAT6A/B), H4K16Ac (KAT8), and H2A.ZK4/K7Ac (KAT5; Fig. 4B).
Histone modification analysis
MCF-7 cells were cultured at 37 °C under 5% CO2 in EMEM (Quality Biological, 112-016-101) with 0.01 mg/mL human recombinant insulin (Sigma Aldrich, 91077C), 2 mM L-glutamine (Quality Biological, 118- […]
human recombinant insulin.
1119, WM-3835). Following 24 h inhibitor treatment, cells were washed with ice-cold 1× PBS and scraped in 150 µL of Nuclear Isolation Buffer (NIB) containing 0.1% NP-40 for histone extraction using a modified protocol from the Garcia laboratory. 9 Briefly, cell suspensions were incubated on ice for 5 minutes, and […]
nuclei were pelleted by centrifugation (600 rcf, 4°C, 5 min). Pelleted nuclei were washed twice with 150 μL of detergent-free NIB buffer, followed by centrifugation (600 rcf, 4°C, 5 min) to remove all detergent.
Nuclei were then resuspended in 400 μL of 0.4 N H₂SO₄ and rotated at 4°C overnight for acid extraction of histones. The following day, samples were centrifuged (11,000 rcf, 4°C, 10 min) and the histone-containing supernatant was transferred to a fresh tube. Trichloroacetic acid (100% TCA) was added to achieve a final concentration of 20% (v/v), tubes were inverted once to mix, and histone precipitation was performed on ice for at least 3 hours or overnight at 4°C. Precipitated histones were collected by centrifugation (11,000 rcf, 4°C, 10 min) and the supernatant carefully removed, leaving a visible film of histones on the tube wall or bottom. Histone pellets were subjected to sequential washes with 1 mL of ice-cold acidified acetone (0.1% 12 N HCl) followed by 1 mL of 100% ice-cold acetone, with centrifugation (11,000 rcf, 4°C, 5 min) after each wash. Samples were air-dried at room temperature, resuspended in 40 µL of ddH₂O, and protein […]
analysis, 1-2 µg of purified histones were loaded per lane and processed according to the general immunoblotting protocol described in General Materials and Methods.
Analysis of histone modifications by LC-MS/MS
Preparation of histone samples for LC-MS/MS was performed analogously to the procedure for immunoblotting above, with the following modifications. MCF7 cells (4.2 × 106) were seeded in 15 cm dishes and treated with PF-9363 or vehicle. Experiments were performed in triplicate. Following treatment and PBS washing, cells were scraped and collected in 15 mL falcon tubes, pelleted (500 rcf, 4°C, 5 min), resuspended in 1 mL cold PBS, transferred to microcentrifuge tubes, and pelleted again before flash-freezing in liquid nitrogen for storage at -80°C. For extraction, cell pellets (~100 μL) were resuspended in NIB buffer at a 1:10 ratio, and cells were lysed with NIB buffer containing 0.2% NP-40 for 8 minutes on ice. Nuclei were pelleted at 1,000 rcf for 8 minutes and washed three times with 500 μL detergent-free NIB buffer. Histones were extracted using 800 μL of 0.2 M H₂SO₄, and after centrifugation (3,400 rcf, 4°C, 10

[1] = KSTGGKAPR(H3_9_17), PF-9363 0.1 v 30
[2] = KSTGGKAPR(H3_9_17), dose 0.1, Replicates 1-3
[3] = KSTGGKAPR(H3_9_17), dose 1, Replicates 1-3
[4] = KSTGGKAPR(H3_9_17), dose 10, Replicates 1-3
[5] = KSTGGKAPR(H3_9_17), dose 30, Replicates 1-3

## COc1cccc(OC)c1S(=O)(=O)Nc1noc2cc(Cn3cccn3)cc(OC)c12 [PF-9363]
Dose 0.1, Replicates 1-3
  Ratio, H33_27_40 K27me1K36me1: 0.03105 and 0.01991 and 0.0237
  Ratio, H33_27_40 K27me1K36me2: 0.1197 and 0.1193 and 0.1112
  Ratio, H33_27_40 K27me1K36me3: 0.04514 and 0.04439 and 0.04142
  Ratio, H33_27_40 K27me2K36me1: 0.1405 and 0.1382 and 0.1214
  Ratio, H33_27_40 K27me3K36me1: 0.01845 and 0.01684 and 0.0146
  Ratio, H33_27_40 K36me1: 0.0294 and 0.02308 and 0.01488
  Ratio, H33_27_40 K36me2: 0.08428 and 0.1024 and 0.06371
  Ratio, H33_27_40 unmod: 0.03417 and 0.02411 and 0.03004
Dose 1, Replicates 1-3
  Ratio, H33_27_40 K27me1K36me1: 0.03073 and 0.02819 and 0.0383
  Ratio, H33_27_40 K27me1K36me2: 0.1247 and 0.1111 and 0.1213
  Ratio, H33_27_40 K27me1K36me3: 0.04601 and 0.04253 and 0.04376
  Ratio, H33_27_40 K27me2K36me1: 0.1533 and 0.1272 and 0.1444
  Ratio, H33_27_40 K27me3K36me1: 0.0193 and 0.01632 and 0.01877
  Ratio, H33_27_40 K36me1: 0.03026 and 0.01971 and 0.04202
  Ratio, H33_27_40 K36me2: 0.01554 and 0.01779 and 0.006701
  Ratio, H33_27_40 unmod: 0.03545 and 0.03942 and 0.04333
Dose 10, Replicates 1-3
  Ratio, H33_27_40 K27me1K36me1: 0.02576 and 0.02348 and 0.03374
  Ratio, H33_27_40 K27me1K36me2: 0.1108 and 0.1087 and 0.1092
  Ratio, H33_27_40 K27me1K36me3: 0.0403 and 0.03824 and 0.04147
  Ratio, H33_27_40 K27me2K36me1: 0.141 and 0.1627 and 0.1276
  Ratio, H33_27_40 K27me3K36me1: 0.0177 and 0.02076 and 0.01377
  Ratio, H33_27_40 K36me1: 0.03075 and 0.02408 and 0.03247
  Ratio, H33_27_40 unmod: 0.02969 and 0.03143 and 0.03433
Dose 30, Replicates 1-3
  Ratio, H33_27_40 K27me1K36me2: 0.1264 and 0.1323 and 0.1144
  Ratio, H33_27_40 K27me1K36me3: 0.04365 and 0.04705 and 0.04027
  Ratio, H33_27_40 K27me2K36me1: 0.1338 and 0.1968 and 0.193
  Ratio, H33_27_40 K27me3K36me1: 0.01979 and 0.01784 and 0.0196
  Ratio, H33_27_40 K36me1: 0.02263 and 0.02698 and 0.02541
  Ratio, H33_27_40 K36me2: 0.07884 and 0.0484 and 0.03683
  Ratio, H33_27_40 unmod: 0.05134 and 0.05555 and 0.03758
[1]
  Fold-change 0.1 v 30, H3_9_17 K9me1: 0.60
  Fold-change 0.1 v 30, H3_9_17 unmod: 0.84
[2]
  Ratio, H3_9_17 K9me1: 0.0627 and 0.06086 and 0.06234
  Ratio, H3_9_17 unmod: 0.1551 and 0.1517 and 0.1473
[3]
  Ratio, H3_9_17 K9me1: 0.09513 and 0.07619 and 0.08786
  Ratio, H3_9_17 unmod: 0.1856 and 0.163 and 0.1825
[4]
  Ratio, H3_9_17 K9me1: 0.07501 and 0.08781 and 0.08267
  Ratio, H3_9_17 unmod: 0.1748 and 0.1913 and 0.1844
[5]
  Ratio, H3_9_17 K9me1: 0.113 and 0.09659 and 0.09797
  Ratio, H3_9_17 unmod: 0.1888 and 0.1674 and 0.1816
MCF-7 cells, 24 h, 0.1-30 μM
  change of exclusively methylated histone peptides: No exclusively methylated peptides were significantly changed
PF-9363 0.1, Replicates 1-3
  Ratio, H2A1_1_11 K5ac: 0.7579 and 0.8858 and 0.9126
  Ratio, H2A1_4_11 K5ac: 0.04777 and 0.02277 and 0.05587
  Ratio, H2A1_4_11 K9ac: 0.03233 and 0.06167 and 0.02731
  Ratio, H2A1_4_11 unmod: 0.9133 and 0.8999 and 0.9064
  Ratio, H2A1_36_42 unmod: 0.9989 and 0.9996 and 0.9988
  Ratio, H2A3_36_42 unmod: 1
  Ratio, H2AJ_4_11 K5acK9ac: 0.9051 and 0.8313 and 0.8743
  Ratio, H2AV_1_19 K4ac: 0.05734 and 0.02419 and 0.03954
  Ratio, H2AV_1_19 unmod: 0.8773 and 0.9119 and 0.8859
  Ratio, H2AX_4_11 unmod: 0.2967 and 0.2834 and 0.276
  Ratio, H2AX_36_42 unmod: 1
  Ratio, H2AZ_1_19 unmod: 0.876 and 0.8713 and 0.8714
